# Screen size: about 48,000 compounds; about 1,200 (2.5%) were called active. About 2% were inconclusive and are not listed.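 The calls were made as follows: active = activation of at least 60% and not above a set upper limit (about 1 call in 100 departs from these limits); inconclusive = activation of 40% to 60%, or above that upper limit; inactive = activation under 40%.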 The list shows a part of the results.
# Molecular target: Probable G-protein coupled receptor 32 (Homo sapiens) (UniProt O75388)
# Experiment: qHTS for Agonists of Human Resolvin D1 Receptor DRV1; also: 0% is about no effect
# Conditions: CHO-K1 GPR32 beta-arrestin PathHunter luminescence, 90 min; at 76.9 µM; active compounds read high; zero percent set by DMSO-only wells
# How it was run: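 Using DMSO wells as EC0, agonist-induced signal was taken as chemiluminescence from beta-Gal reconstituted upon beta-arrestin recruitment to GPR32 in CHO-K1 cells after 90 min compound treatment.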
# Sequence of UniProt O75388 (O75388 whole entry, looked up): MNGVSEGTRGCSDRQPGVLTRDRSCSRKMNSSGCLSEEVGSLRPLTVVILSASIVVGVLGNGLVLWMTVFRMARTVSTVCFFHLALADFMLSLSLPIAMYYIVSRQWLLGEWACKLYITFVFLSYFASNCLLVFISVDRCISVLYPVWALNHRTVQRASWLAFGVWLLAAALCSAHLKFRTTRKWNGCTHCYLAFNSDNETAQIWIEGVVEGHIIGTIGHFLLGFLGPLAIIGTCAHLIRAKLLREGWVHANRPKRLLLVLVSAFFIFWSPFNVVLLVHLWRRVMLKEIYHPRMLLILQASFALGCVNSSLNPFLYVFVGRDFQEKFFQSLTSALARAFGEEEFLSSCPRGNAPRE
row,SMILES,activation
1,CCOc1ccccc1NC(=O)c1sc2nc(C)cc(C)c2c1N,inactive: -1.77%
2,Cc1c(Cl)cccc1NC(=O)CN1C(=O)COc2ccc(S(=O)(=O)N3CCCCCC3)cc21,inactive: -10.8%
3,CCc1ccc(NC(=O)c2ccc(F)c(S(=O)(=O)NC3CCCCCC3)c2)cc1,inactive: -14.5%
4,COc1cccc(CNC(=O)CSc2ncc3c(n2)-c2cc(Cl)ccc2N(C)S3(=O)=O)c1,inactive: 13.1%
5,Cc1c(C(=O)N2CCC(C)CC2)c(S(=O)(=O)N(Cc2ccccc2)C(C)(C)C)c(C)n1C,inactive: -21.4%
6,CN1CCN(C(=O)C(=O)Nc2c3c(nn2-c2ccc(Cl)cc2)CSC3)CC1,inactive: 3.29%
7,Cn1c(=O)c(C(=O)O)nn(-c2ccccc2)c1=O,inactive: 16.7%
8,Cc1ccc(NC(=O)Nc2nnc(N3CCCC3)s2)cc1C,inactive: -3.43%
9,CCC(=O)NCCc1nc2cc(NC(=O)c3cccc(Br)c3)ccc2n1C,inactive: -4.22%
10,CCN(CC)C(=O)c1ccc2c(c1)N(Cc1ccc(C(F)(F)F)cc1)C(=O)c1ccccc1S2,active: 87.2%
11,CCOCCCn1c(=N)c(C(=O)NCc2cccnc2)cc2c(=O)n3ccccc3nc21,inactive: -46.3%
12,Cc1ccc(N2C(=O)CCSC23C(=O)N(Cc2ccccc2)c2ccccc23)cc1 (stereo not drawn),inactive: -7%
13,Cc1nn2c(=O)cc(COC(=O)c3cccc(NC(=O)COc4ccccc4C)c3)nc2s1,inactive: -16%
14,CCOc1ccccc1CNC(=O)C1CCCN(c2nnc(C)c3c(C)n(-c4ccccc4)nc23)C1 (stereo not drawn),inactive: 11.9%
15,COc1cccc(CNC(=O)CSC2=Nc3ccccc3N=C(c3ccc(F)cc3)C2)c1,inactive: -15.9%
16,COC(=O)c1ccc(C(=O)OC)c(NC(=O)CN(c2ccccc2)S(=O)(=O)N(C)C)c1,inactive: -9.63%
17,CCOC(=O)C1CCN(C(=O)Cn2nc(CC)n3c(cc4sccc43)c2=O)CC1,inactive: -3.82%
18,O=C(NCc1ccccc1Cl)c1ccc(CS(=O)(=O)c2ccc(Br)cc2)o1,inactive: 21.4%
19,NS(=O)(=O)c1cc2c(cc1Cl)NC(CSCc1ccccc1)=NS2(=O)=O,inactive: -38.9%
20,COc1ccc(Nc2ncnc3sc4c(c23)CCCC4)cc1,active: 94.2%
21,Cn1nnnc1SCCCNCc1ccccc1OCc1ccc(Cl)cc1,inactive: -1.35%
22,Cc1c(CNC2CCCCC2)c(C(=O)O)c(C)n1Cc1ccc(Cl)cc1,inactive: 10.2%
23,Cc1ccc(Cn2c3ccccc3c3cnn(CC(=O)Nc4cc(Cl)ccc4C)c(=O)c32)cc1,inactive: -20%
24,Cc1cc(C)c(NC(=O)Cn2c(=O)n(CCC(=O)N3CCc4ccccc4C3)c(=O)c3ccccc32)c(C)c1,inactive: 22.3%
25,CCN(CC)S(=O)(=O)c1ccc2c(c1)N(CC(=O)N1CCN(c3cccc(C)c3C)CC1)C(=O)CO2,inactive: -34.6%
26,CCOc1cc(CNS(=O)(=O)c2ccc3c(c2)C(C)(C)C(=O)N3)cc(OCC)c1OCC,inactive: -14.9%
27,CCc1nn(CCCC(=O)NCc2ccc(OC(C)C)cc2)c(=O)c2cc3occc3n12,inactive: -22.1%

row,SMILES,activation
1,O=C(CSc1n[nH]c(-c2ccccc2Cl)n1)NCCc1ccccc1,inactive: -7.72%
2,COc1ccc(N2CCN(C(=O)c3cccn3-c3nnc(N4CCCC4)s3)CC2)cc1,inactive: -3.06%
3,COc1ccc(C)cc1NC(=O)Nc1nnc(N2CCCCC2)s1,inactive: 5.88%
4,CCOC(=O)C1CCCN(c2nc3c(S(=O)(=O)c4ccc(CC)cc4)nnn3c3ccc(Cl)cc23)C1 (stereo not drawn),inactive: -4.23%
5,CC(NC(=O)Cn1ccc2cc(S(=O)(=O)N3CCCCCC3)ccc21)c1ccccc1 (stereo not drawn),inactive: 15.1%
6,Cc1ccc(NC(=O)c2sc3nc(-c4cccs4)ccc3c2N)cc1F,inactive: 21.1%
7,CCN(CC)C(=O)c1c(NC(=O)c2cccc(C)c2)sc2c1CCC(C)C2 (stereo not drawn),inactive: -29%
8,CCN1CCC(N(Cc2ccc3c(c2)OCO3)C(=O)Nc2cc(F)ccc2F)CC1,inactive: -6.68%
9,CCCCc1nnc(SCc2cc(=O)c3cc(F)ccc3[nH]2)n1C,inactive: -7.7%
10,COc1ccc(-c2cc(C(F)(F)F)nc(SCCC(=O)Nc3ccc(OC)c(OC)c3)n2)cc1,inactive: -4.23%
11,CC(C)(C)NC(=O)C1CCN(c2nc3ccccc3nc2C(F)(F)F)CC1,inactive: -9.46%
12,COc1ccc(C(=O)NCCn2cc(SCc3c(F)cccc3Cl)c3ccccc32)cc1,inactive: -2.47%
13,Cc1ccc(-n2ncc3c(NC4CCCCCC4)ncnc32)cc1,inactive: 27.5%
14,COc1ccc(CNC(=O)CN2C(=O)CC(c3ccc(C)c(C)c3)=Nc3ccccc32)cc1,inactive: -0.749%
15,O=C(c1cnc(N2CCOCC2)c2ccccc12)N1CCN(c2ccccc2)CC1,inactive: -9.62%
16,O=c1[nH]c2cc(Br)ccc2n2cccc12,inactive: -1.67%
17,O=C(O)c1ccccc1Nc1cc(Cl)ccc1C(=O)O,inactive: -27.6%
18,Cc1cc(C)c(-c2n[nH]c3c2C(c2ccccc2F)N(Cc2ccco2)C3=O)c(O)c1 (stereo not drawn),inactive: -12.2%
19,COc1cc(NC(=O)N2CCc3c(sc4c3CCCC4)C2c2ccccc2)cc(OC)c1OC (stereo not drawn),inactive: -9.64%
20,CCN(CC)CCSc1c(C(C)C)cnc2c1c(=O)n(C)c(=O)n2C,inactive: -16.6%
21,O=C(CN1C(=O)COc2ccc(S(=O)(=O)NC3CCCC3)cc21)NCc1ccc(Cl)cc1,inactive: 2.23%
22,CCOc1ccc(CNC(=O)CSc2nnc(C)c3c(C)n(-c4ccc(Cl)cc4)nc23)cc1,inactive: 19.1%
23,COc1ccc(OC)c2sc(N3CCN(C(=O)c4ccco4)CC3)nc12,inactive: -9.17%
24,Cc1cccc(NC(=O)CSc2nc3ccc(NC(=O)COc4ccccc4C)cc3s2)c1,inactive: -4.91%
25,Cc1c(C(=O)OCCOc2ccccc2)[nH]c2c1C(=O)CC(c1ccc(C(C)(C)C)cc1)C2 (stereo not drawn),inactive: 8.66%
26,CCn1c2c(c(=O)n3ncc(C(=O)Nc4cc(Cl)ccc4OC)c13)CN(Cc1ccc(OC)cc1)CC2,inactive: -16.7%
